Paper PMC6919601, “Identification of Plasmodium dipeptidyl aminopeptidase allosteric inhibitors by high throughput screening” (PLoS ONE, 2019)
The campaign covered roughly 110,000 compounds. About 230 (0.21%) showed an effect of 50% or more. The list shows a part of the results.

The compounds below were run against DPAP1 (Plasmodium falciparum, UniProt Q8IIJ9) (assay: primary screen, percent inhibition; read by cleavage of a fluorogenic dipeptide substrate; higher = more effect of the substance).
Parameters: species or system P. falciparum D10 trophozoite lysates; single well
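Further: 30 min substrate incubation versus DMSO and 10 µM JCP410 controls.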

Chain of DPAP1 (Q8IIJ9 whole entry, looked up): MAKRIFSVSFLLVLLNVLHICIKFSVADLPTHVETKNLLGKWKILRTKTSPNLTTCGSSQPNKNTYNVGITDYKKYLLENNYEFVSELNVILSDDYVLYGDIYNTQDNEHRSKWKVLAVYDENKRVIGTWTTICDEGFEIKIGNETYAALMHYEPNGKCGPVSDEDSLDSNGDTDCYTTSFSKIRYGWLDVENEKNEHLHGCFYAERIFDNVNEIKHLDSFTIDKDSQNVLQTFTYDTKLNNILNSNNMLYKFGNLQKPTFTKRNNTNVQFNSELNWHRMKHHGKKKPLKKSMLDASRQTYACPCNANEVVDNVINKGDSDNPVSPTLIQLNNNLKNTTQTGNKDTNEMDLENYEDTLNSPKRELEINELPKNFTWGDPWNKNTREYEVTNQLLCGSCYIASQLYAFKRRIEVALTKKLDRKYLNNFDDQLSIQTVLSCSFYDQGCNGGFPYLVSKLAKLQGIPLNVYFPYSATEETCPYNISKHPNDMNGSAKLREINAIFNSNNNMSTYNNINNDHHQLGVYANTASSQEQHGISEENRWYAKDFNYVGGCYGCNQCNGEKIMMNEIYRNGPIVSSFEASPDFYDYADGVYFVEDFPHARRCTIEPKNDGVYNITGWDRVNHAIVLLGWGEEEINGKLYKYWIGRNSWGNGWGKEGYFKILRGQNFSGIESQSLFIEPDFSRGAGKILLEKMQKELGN

Structure (SMILES)	% Inhibition @ 10 uM [%]
CC1C(c2ccccc2)NC(c2ccccc2)C(C)C1(O)C#Cc1ccccc1 (stereo not shown)	-1.32
O=C(O)COc1ccc2ccccc2c1Br	-3.62
O=C(c1ccc(CSCc2ccccc2F)o1)N1CCN(c2ccc(N3CCOCC3)nn2)CC1	-3.45
COc1cc(O)ccc1C1Nc2ccc(C)cc2-c2cc(C)nn21 (stereo not shown)	-2.11
COc1ccc(CCNC(=O)c2nnc(-c3cccnc3)o2)cc1OC	-4.47
COc1ccc(C2=N/C(=C\C(Cl)=C\c3ccccc3)C(=O)O2)cc1	4.54
CCCC[C@H](NC(=O)[C@H](C[C@H](C)c1ccccc1OC)NC(=O)c1cc2c(C(F)(F)F)nn(C)c2s1)C(=O)CC(=O)N1CCCC1	0.079
CCCCOc1ccc(NC(=O)c2sc3nc(N)c(C#N)cc3c2N)cc1	-6.92
Cc1cc(C)nc(Nc2n[nH]c(-c3ccccc3Cl)n2)n1	3.56
OCC(O)C1OC2OC3(CCCCC3)OC2C1O (stereo not shown)	-4.61
c1ccc(CC2CCN(c3nn4nnnc4c4ccccc34)CC2)cc1	-8.89
CCN1CCN(C(=O)Cn2ncc3c2-c2cc(C)ccc2OC3)CC1	-8.2
COc1ccc(OCc2nc(C#N)c(NCC(C)C)o2)cc1	-1.18
CCCCCn1c(SC(C)CC)nc2c1c(=O)[nH]c(=O)n2C (stereo not shown)	5.89
Cc1cc(OCC(O)CN2CCN(c3ccc(F)cc3)CC2)ccc1C(C)C (stereo not shown)	2.22
CCOc1cc(/C=N\n2nnnc2N)ccc1O	13.2
CCOc1ccccc1NC(=O)c1ccc(C(C)(C)C)cc1	0.475
COCCCNC(=O)C1CCCN(S(=O)(=O)N2CCOCC2)C1 (stereo not shown)	-7.53
CC(C)(C)OC(=O)N1CCN(C2(c3ccccc3)C(=O)c3ccccc3C2=O)CC1	-4.16
Cc1ccc(C(=O)c2ccc(F)c(F)c2)cc1	-8.48
CNc1c(NS(=O)(=O)c2ccc(OC)cc2)c(=O)oc2ccccc12	-0.0709
NC1CCC(C(=O)O)(c2ccccc2)C1 (stereo not shown)	1.72

Structure (SMILES)	% Inhibition @ 10 uM [%]
COc1cccc(NC(=O)COc2ccc(S(=O)(=O)NC(C)C)cc2)c1	0.889
Cc1cc(C)cc(NC(=O)C(C)SCc2ccccc2)c1 (stereo not shown)	5.66
O=C(CCc1nnc2n(Cc3ccccc3)c(=O)c3ccccc3n12)N1CCN(C2CCCCC2)CC1	4.16
Cc1ccccc1C(=O)Nc1ccc(S(=O)(=O)Nc2nccs2)cc1	-3.39
CCCn1c2ccccc2c2cnn(CC(=O)N3CCC4(CC3)OCCO4)c(=O)c21	0.00353
Cc1cccc(N2C(=O)C(Cl)=C(Nc3ccc(S(N)(=O)=O)cc3)C2=O)c1C	0.458
CCOc1ccc(-c2c(C#N)c(N)nc3c2CCCC3)cc1	3.44
CC1CCN(CC(O)COC2CC(C)CC(C)(C)C2)CC1 (stereo not shown)	-7.76
O=C(Nc1ccc(NC(=O)c2ccccc2Cl)cc1)c1ccco1	-1.28
O=C(NCc1ccc(Cl)cc1)N1CCOCC1	-2.35
Fc1ccccc1N1N=C(/C=C/c2ccc(Br)cc2)CC1c1ccc(Br)cc1 (stereo not shown)	2.62
CCC(C)C(NC(=O)C1CCC(C)CC1)C(=O)NC(C)c1ccccc1 (stereo not shown)	-4.06
COc1ccc(CC(=O)Nc2ccccc2C)cc1	5.56
COc1ccccc1CNC(=O)CCSc1ccc(Cl)cc1	-17.9
Cc1nc(N2C(=O)C(O)=C(C(=O)c3ccccc3)C2c2ccccc2F)sc1C (stereo not shown)	2.98
COc1ccc(C2Nc3ccccc3N=C3CC(c4cccs4)CC(O)=C32)c(OC)c1 (stereo not shown)	-2.77
CCN(CCNC(=O)C1CCN(c2ncnc3c2nc2n3CCCCC2)CC1)Cc1ccccc1	-3.22
COc1ccc(Cl)cc1NC(=O)CC1S/C(=N\C(C)C)N(C(C)C)C1=O (stereo not shown)	2.22
CC1(C(=O)NC2CCCCCC2)Cc2ccccc2C(=O)N1C1CCCCC1 (stereo not shown)	-3.34
Cc1ccc(Cn2nnc3sc(-c4ccccc4)cc3c2=O)cc1	46.2
O=C(NCc1ccccc1)c1ccc(Cl)c([N+](=O)[O-])c1	0.467
